According to the supplement of paper PMC4967469:
Lines with a small IC50 respond at low doses; where the fit passes the top or lowest dose, that dose stands as a limit. The AUC spans the tested range (256-fold, ending at the top dose) of the same fit; the more sensitive the line, the further below 1. For part of these data: An inferred top dose was calculated from the reported fits.

What was measured:
Assay in all cases: Viability of human cancer cell lines after 72 h of drug (GDSC screen)
SN-38 = compound: CCc1c2c(nc3ccc(O)cc13)-c1cc3c(c(=O)n1C2)COC(=O)[C@]3(O)CC [SN-38]; settings: top dose 0.05 µM; top dose inferred
Experimental: (§1)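 Human cancer cell lines in 384-well plates, medium with 10% serum, drug for 72 h over a 256-fold dose range (nine 2-fold or five 4-fold steps up to the top dose). Adherent lines were fixed and stained with the nucleic acid dye Syto60, suspension lines read with resazurin; signal relative to control wells, capped at 0 and 100%. One two-parameter sigmoid per drug and line, fitted in a mixed model over all curves with the slope shared within a line.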

Vorinostat = compound: O=C(CCCCCCC(=O)Nc1ccccc1)NO [Vorinostat]; settings: top dose 10 µM
Experimental: as §1

Axitinib = compound: CNC(=O)c1ccccc1Sc1ccc2c(/C=C/c3ccccn3)n[nH]c2c1 [Axitinib]; settings: top dose 2 µM
Experimental: as §1

Dabrafenib = compound: CC(C)(C)c1nc(-c2cccc(NS(=O)(=O)c3c(F)cccc3F)c2F)c(-c2ccnc(N)n2)s1 [Dabrafenib]; settings: top dose 10 µM
Experimental: as §1

Methotrexate = compound: CN(Cc1cnc2nc(N)nc(N)c2n1)c1ccc(C(=O)N[C@@H](CCC(=O)O)C(=O)O)cc1 [Methotrexate]; settings: top dose 0.2 µM
Experimental: as §1

EFM-192A (breast, adherent) was tested, and the AUC (SN-38) was 0.943, the IC50 (SN-38) was > 50 nM and the AUC (Vorinostat) was 0.54. For the same cell line, the IC50 (Vorinostat) was 813 nM, the AUC (Axitinib) was 0.984 and the IC50 (Axitinib) was > 2000 nM. The AUC (Dabrafenib) was 0.951, the IC50 (Dabrafenib) was > 10 µM and the AUC (Methotrexate) was 0.923. The IC50 (Methotrexate) was > 200 nM.
Cell Line SUIT-2 (pancreas, adherent) has an AUC (SN-38) of 0.638, an IC50 (SN-38) of 7.66 nM and an AUC (Vorinostat) of 0.729. The IC50 (Vorinostat) was 2910 nM, the AUC (Axitinib) was 0.978 and the IC50 (Axitinib) was > 2000 nM. For the same cell line, the AUC (Dabrafenib) was 0.876, the IC50 (Dabrafenib) was > 10 µM and the AUC (Methotrexate) was 0.788. For the same cell line, the IC50 (Methotrexate) was 92.4 nM.
Cell Line JHH-4 (liver, adherent) has an AUC (SN-38) of 0.7, an IC50 (SN-38) of 11.4 nM and an AUC (Vorinostat) of 0.792. For the same cell line, the IC50 (Vorinostat) was 4500 nM, the AUC (Axitinib) was 0.977 and the IC50 (Axitinib) was > 2000 nM. The AUC (Dabrafenib) was 0.899, the IC50 (Dabrafenib) was > 10 µM and the AUC (Methotrexate) was 0.985. For the same cell line, the IC50 (Methotrexate) was > 200 nM.
Work on H513 (mesothelioma, semi-adherent) yielded an AUC (SN-38) of 0.788, an IC50 (SN-38) of 27.3 nM and an AUC (Vorinostat) of 0.868. The IC50 (Vorinostat) was > 10000 nM, the AUC (Axitinib) was 0.985 and the IC50 (Axitinib) was > 2000 nM. For the same cell line, the AUC (Dabrafenib) was 0.963, the IC50 (Dabrafenib) was > 10 µM and the AUC (Methotrexate) was 0.864. For the same cell line, the IC50 (Methotrexate) was > 200 nM.
EVSA-T (breast, adherent) gave an AUC (SN-38) of 0.687, an IC50 (SN-38) of 9.55 nM and an AUC (Vorinostat) of 0.648. For the same cell line, the IC50 (Vorinostat) was 1500 nM, the AUC (Axitinib) was 0.952 and the IC50 (Axitinib) was > 2000 nM. For the same cell line, the AUC (Dabrafenib) was 0.99, the IC50 (Dabrafenib) was > 10 µM and the AUC (Methotrexate) was 0.977. The IC50 (Methotrexate) was > 200 nM.
With “NCI-H146 (small cell lung carcinoma, suspension)” the AUC (SN-38) was 0.964, the IC50 (SN-38) was > 50 nM and the AUC (Vorinostat) was 0.494. For the same cell line, the IC50 (Vorinostat) was 606 nM, the AUC (Axitinib) was 0.986 and the IC50 (Axitinib) was > 2000 nM. For the same cell line, the AUC (Dabrafenib) was 0.995, the IC50 (Dabrafenib) was > 10 µM and the AUC (Methotrexate) was 0.93. The IC50 (Methotrexate) was > 200 nM.
Work on MC-IXC (neuroblastoma, adherent) yielded an AUC (SN-38) of 0.093, an IC50 (SN-38) of 0.276 nM and an AUC (Vorinostat) of 0.642. The IC50 (Vorinostat) was 1380 nM, the AUC (Axitinib) was 0.988 and the IC50 (Axitinib) was > 2000 nM. For the same cell line, the AUC (Dabrafenib) was 0.996, the IC50 (Dabrafenib) was > 10 µM and the AUC (Methotrexate) was 0.995. For the same cell line, the IC50 (Methotrexate) was > 200 nM.
“NCI-H1838 (lung adenocarcinoma, adherent)” was tested, and the AUC (SN-38) was 0.921, the IC50 (SN-38) was > 50 nM and the AUC (Vorinostat) was 0.852. For the same cell line, the IC50 (Vorinostat) was > 10000 nM, the AUC (Axitinib) was 0.987 and the IC50 (Axitinib) was > 2000 nM. For the same cell line, the AUC (Dabrafenib) was 0.97, the IC50 (Dabrafenib) was > 10 µM and the AUC (Methotrexate) was 0.952. The IC50 (Methotrexate) was > 200 nM.
With PL4 (pancreas, adherent) the AUC (SN-38) was 0.733, the IC50 (SN-38) was 14.8 nM and the AUC (Vorinostat) was 0.782. For the same cell line, the IC50 (Vorinostat) was 4320 nM, the AUC (Axitinib) was 0.986 and the IC50 (Axitinib) was > 2000 nM. For the same cell line, the AUC (Dabrafenib) was 0.915, the IC50 (Dabrafenib) was > 10 µM and the AUC (Methotrexate) was 0.95. The IC50 (Methotrexate) was > 200 nM.
With “LC-1-sq (lung squamous cell carcinoma, adherent)” the AUC (SN-38) was 0.858, the IC50 (SN-38) was > 50 nM and the AUC (Vorinostat) was 0.493. The IC50 (Vorinostat) was 598 nM, the AUC (Axitinib) was 0.921 and the IC50 (Axitinib) was > 2000 nM. For the same cell line, the AUC (Dabrafenib) was 0.983, the IC50 (Dabrafenib) was > 10 µM and the AUC (Methotrexate) was 0.951. For the same cell line, the IC50 (Methotrexate) was > 200 nM.
CaR-1 (large intestine, adherent) gave an AUC (SN-38) of 0.271, an IC50 (SN-38) of 0.492 nM and an AUC (Vorinostat) of 0.716. The IC50 (Vorinostat) was 3540 nM, the AUC (Axitinib) was 0.951 and the IC50 (Axitinib) was > 2000 nM. For the same cell line, the AUC (Dabrafenib) was 0.975, the IC50 (Dabrafenib) was > 10 µM and the AUC (Methotrexate) was 0.968. For the same cell line, the IC50 (Methotrexate) was > 200 nM.
ESO26 (oesophagus, adherent) gave an AUC (SN-38) of 0.714, an IC50 (SN-38) of 12 nM and an AUC (Vorinostat) of 0.736. For the same cell line, the IC50 (Vorinostat) was 2810 nM, the AUC (Axitinib) was 0.983 and the IC50 (Axitinib) was > 2000 nM. For the same cell line, the AUC (Dabrafenib) was 0.988, the IC50 (Dabrafenib) was > 10 µM and the AUC (Methotrexate) was 0.834. For the same cell line, the IC50 (Methotrexate) was 120 nM.
“LU-134-A (small cell lung carcinoma, suspension)” gave an AUC (SN-38) of 0.634, an IC50 (SN-38) of 7.51 nM and an AUC (Vorinostat) of 0.686. For the same cell line, the IC50 (Vorinostat) was 2160 nM, the AUC (Axitinib) was 0.97 and the IC50 (Axitinib) was > 2000 nM. The AUC (Dabrafenib) was 0.975, the IC50 (Dabrafenib) was > 10 µM and the AUC (Methotrexate) was 0.922. The IC50 (Methotrexate) was > 200 nM.
IMR-5 (neuroblastoma, adherent) was tested, and the AUC (SN-38) was 0.415, the AUC (Vorinostat) was 0.726 and the IC50 (Vorinostat) was 2420 nM. The AUC (Axitinib) was 0.932, the IC50 (Axitinib) was > 2000 nM and the AUC (Dabrafenib) was 0.973. For the same cell line, the IC50 (Dabrafenib) was > 10 µM, the AUC (Methotrexate) was 0.856 and the IC50 (Methotrexate) was 122 nM.
With “NCI-H1395 (lung adenocarcinoma, adherent)” the AUC (SN-38) was 0.696, the IC50 (SN-38) was 13.4 nM and the AUC (Vorinostat) was 0.876. The IC50 (Vorinostat) was > 10000 nM, the AUC (Axitinib) was 0.965 and the IC50 (Axitinib) was > 2000 nM. For the same cell line, the AUC (Dabrafenib) was 0.971, the IC50 (Dabrafenib) was > 10 µM and the AUC (Methotrexate) was 0.965. For the same cell line, the IC50 (Methotrexate) was > 200 nM.
Work on OVISE (ovary, adherent) yielded an AUC (SN-38) of 0.825, an IC50 (SN-38) of 44.1 nM and an AUC (Vorinostat) of 0.507. For the same cell line, the IC50 (Vorinostat) was 656 nM, the AUC (Axitinib) was 0.969 and the IC50 (Axitinib) was > 2000 nM. The AUC (Dabrafenib) was 0.958, the IC50 (Dabrafenib) was > 10 µM and the AUC (Methotrexate) was 0.815. The IC50 (Methotrexate) was 158 nM.
NCI-H630 (large intestine, adherent) was tested, and the AUC (SN-38) was 0.918, the IC50 (SN-38) was > 50 nM and the AUC (Vorinostat) was 0.812. For the same cell line, the IC50 (Vorinostat) was 5830 nM, the AUC (Axitinib) was 0.98 and the IC50 (Axitinib) was > 2000 nM. For the same cell line, the AUC (Dabrafenib) was 0.953, the IC50 (Dabrafenib) was > 10 µM and the AUC (Methotrexate) was 0.977. The IC50 (Methotrexate) was > 200 nM.
In the case of “LU-165 (small cell lung carcinoma, suspension)”, the AUC (SN-38) is reported as 0.87, the IC50 (SN-38) is reported as > 50 nM and the AUC (Vorinostat) is reported as 0.987. For the same cell line, the IC50 (Vorinostat) was > 10000 nM, the AUC (Axitinib) was 0.985 and the IC50 (Axitinib) was > 2000 nM. The AUC (Dabrafenib) was 0.938, the IC50 (Dabrafenib) was > 10 µM and the AUC (Methotrexate) was 0.955. The IC50 (Methotrexate) was > 200 nM.
In the case of NU-DUL-1 (B-cell lymphoma, suspension), the AUC (SN-38) is reported as 0.593, the IC50 (SN-38) is reported as 5.33 nM and the AUC (Vorinostat) is reported as 0.472. The IC50 (Vorinostat) was 533 nM, the AUC (Axitinib) was 0.939 and the IC50 (Axitinib) was > 2000 nM. For the same cell line, the AUC (Dabrafenib) was 0.992, the IC50 (Dabrafenib) was > 10 µM and the AUC (Methotrexate) was 0.992. For the same cell line, the IC50 (Methotrexate) was > 200 nM.
OACM5-1 (oesophagus, semi-adherent) was tested, and the AUC (SN-38) was 0.961, the IC50 (SN-38) was > 50 nM and the AUC (Vorinostat) was 0.886. For the same cell line, the IC50 (Vorinostat) was > 10000 nM, the AUC (Axitinib) was 0.984 and the IC50 (Axitinib) was > 2000 nM. For the same cell line, the AUC (Dabrafenib) was 0.985, the IC50 (Dabrafenib) was > 10 µM and the AUC (Methotrexate) was 0.971. For the same cell line, the IC50 (Methotrexate) was > 200 nM.
Work on “KARPAS-422 (B-cell lymphoma, suspension)” yielded an AUC (SN-38) of 0.838, an IC50 (SN-38) of 33.2 nM and an AUC (Vorinostat) of 0.619. For the same cell line, the IC50 (Vorinostat) was 1320 nM, the AUC (Axitinib) was 0.971 and the IC50 (Axitinib) was > 2000 nM. It also gave an AUC (Dabrafenib) of 0.851, an IC50 (Dabrafenib) of 7.51 µM and an AUC (Methotrexate) of 0.916. For the same cell line, the IC50 (Methotrexate) was > 200 nM.
BICR22 (head and neck, adherent) showed an AUC (SN-38) of 0.44, an IC50 (SN-38) of 2.09 nM and an AUC (Vorinostat) of 0.546. For the same cell line, the IC50 (Vorinostat) was 849 nM, the AUC (Axitinib) was 0.885 and the IC50 (Axitinib) was > 2000 nM. The AUC (Dabrafenib) was 0.962, the IC50 (Dabrafenib) was > 10 µM and the AUC (Methotrexate) was 0.958. The IC50 (Methotrexate) was > 200 nM.
